About 14,000 (4.5%) of roughly 310,000 compounds showed an effect of 50% or more. Effects have a minus sign here. Some of the results follow.
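Also: peak tail current of the secondary pulse compared with the same well before compound.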

For the experiment, the target named is human ether-à-go-go-related gene (hERG) potassium channel (human, UniProt Q12809). Kind of experiment: primary screen, population patch clamp on CHO cells stably expressing hERG.
human ether-à-go-go-related gene (hERG) potassium channel, sequence (Q12809 whole entry, looked up): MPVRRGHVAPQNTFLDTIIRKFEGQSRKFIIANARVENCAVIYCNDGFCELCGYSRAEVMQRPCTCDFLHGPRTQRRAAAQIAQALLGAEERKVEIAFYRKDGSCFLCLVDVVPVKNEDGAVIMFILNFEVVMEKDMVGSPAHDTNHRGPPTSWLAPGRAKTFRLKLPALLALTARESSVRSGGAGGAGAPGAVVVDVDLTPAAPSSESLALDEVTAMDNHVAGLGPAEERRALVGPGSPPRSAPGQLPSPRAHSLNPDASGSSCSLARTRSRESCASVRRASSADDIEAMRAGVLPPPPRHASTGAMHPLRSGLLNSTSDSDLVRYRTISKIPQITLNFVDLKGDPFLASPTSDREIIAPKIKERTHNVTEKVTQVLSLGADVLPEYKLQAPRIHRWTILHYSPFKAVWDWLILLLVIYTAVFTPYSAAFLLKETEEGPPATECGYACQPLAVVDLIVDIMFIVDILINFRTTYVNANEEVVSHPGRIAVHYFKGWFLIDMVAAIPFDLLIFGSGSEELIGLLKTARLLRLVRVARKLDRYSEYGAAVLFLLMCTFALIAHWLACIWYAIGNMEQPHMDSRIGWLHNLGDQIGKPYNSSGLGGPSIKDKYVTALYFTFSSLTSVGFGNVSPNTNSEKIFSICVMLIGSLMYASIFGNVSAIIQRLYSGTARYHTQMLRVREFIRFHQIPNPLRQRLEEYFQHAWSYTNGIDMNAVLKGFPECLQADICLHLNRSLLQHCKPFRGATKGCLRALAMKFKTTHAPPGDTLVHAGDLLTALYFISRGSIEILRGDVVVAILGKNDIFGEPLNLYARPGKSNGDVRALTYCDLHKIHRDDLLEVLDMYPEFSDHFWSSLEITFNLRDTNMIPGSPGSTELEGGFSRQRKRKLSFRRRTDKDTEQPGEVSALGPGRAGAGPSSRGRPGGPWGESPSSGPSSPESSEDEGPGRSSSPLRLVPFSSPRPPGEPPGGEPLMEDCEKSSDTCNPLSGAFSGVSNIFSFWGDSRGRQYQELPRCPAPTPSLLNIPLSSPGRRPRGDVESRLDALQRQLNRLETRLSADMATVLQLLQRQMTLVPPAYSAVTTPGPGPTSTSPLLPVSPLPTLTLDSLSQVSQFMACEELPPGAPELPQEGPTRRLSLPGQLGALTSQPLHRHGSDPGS
`CCOc1cc(/C=N/NC(N)=S)cc(Br)c1OCc1ccccc1C`: the “hERG current change (%, negative = inhibition) at 10uM” value is 16.3%.

As to `CCOC(=O)C1=C(N)Oc2cc(O)ccc2C1c1ccc(F)cc1F` (stereo not drawn), the “hERG current change (%, negative = inhibition) at 10uM” value turned out to be 11.8%.

With `CCOC(=O)CC(NC(=O)C1c2ccccc2Oc2ccccc21)c1ccccc1Cl` (stereo not drawn), the “hERG current change (%, negative = inhibition) at 10uM” value is 29%.

In the case of `O=C(NCc1nnnn1-c1cccc(F)c1)c1ccc(S(=O)(=O)N2CCOCC2)cc1`, the “hERG current change (%, negative = inhibition) at 10uM” value is -2.15%.

Take `COc1ccc(/C=C2\Sc3ccc(C(=O)N4CCc5ccccc5C4)cc3N(C)C2=O)cc1`: the “hERG current change (%, negative = inhibition) at 10uM” value is 7.98%.

Take `O=C(CC1NCCNC1=O)Nc1ccc(Cl)c(Cl)c1` (stereo not drawn): the “hERG current change (%, negative = inhibition) at 10uM” value is given as 3.96%.

Turning to `CC1(C)CC(=O)C(C(=O)Cc2ccccc2[N+](=O)[O-])C(=O)C1`, the “hERG current change (%, negative = inhibition) at 10uM” value was determined as 34.3%.

For `C/C=C(\C)C(=O)Nc1cccc(C2=NOC3(C2)C[C@H](C(N)=O)N(C(=O)c2cc([N+](=O)[O-])cc([N+](=O)[O-])c2)C3)c1` (stereo partly drawn), the “hERG current change (%, negative = inhibition) at 10uM” value was 4.21%.

With `O=C(CCC1CCCN(C(=O)c2cccnc2)C1)NCc1ccccc1F` (stereo not drawn), the “hERG current change (%, negative = inhibition) at 10uM” value was 1.5%.

Consider `CCc1nnc(NC(=O)CSc2nnc(-c3ccccc3OC)n2-c2ccc(C)cc2)s1`, for which the “hERG current change (%, negative = inhibition) at 10uM” value was 10.5%.

In the case of `Nc1nc(C2CCCCC2)cs1`, the “hERG current change (%, negative = inhibition) at 10uM” value is listed as -4.06%.

On to `Cc1ccc(S(=O)(=O)N(Cc2cc3cc4c(cc3[nH]c2=O)OCCO4)CC2CCCO2)cc1` (stereo not drawn), for which the “hERG current change (%, negative = inhibition) at 10uM” value is given as 12.3%.

For the compound `Cc1cc(C)cc(N(C(=O)c2csnn2)C(C(=O)NC(C)(C)C)c2cccs2)c1` (stereo not drawn), the “hERG current change (%, negative = inhibition) at 10uM” value is -13.6%.

As to `COCc1ccc(C(=O)NC(C)c2cnn(-c3ccccc3C)c2C)o1` (stereo not drawn), the “hERG current change (%, negative = inhibition) at 10uM” value was 10.2%.

In the case of `O=C(NC1CCCc2ccccc21)c1ccc(F)cc1F` (stereo not drawn), the “hERG current change (%, negative = inhibition) at 10uM” value is -7.09%.

Regarding `Cc1cc(N2CCN(Cc3cn(C)nc3-c3ccccc3F)CC2)cc(C)n1`, the “hERG current change (%, negative = inhibition) at 10uM” value is reported as -35%.

Regarding `CC1C(C#N)=C(N)OC2=C1C(=O)CCC2` (stereo not drawn), the “hERG current change (%, negative = inhibition) at 10uM” value is -16.7%.

For `C=CCOC(=O)Nc1ccc(Cl)cc1NC(=O)OCC=C`, the “hERG current change (%, negative = inhibition) at 10uM” value is given as -18.1%.

As to `O=C(Nc1cccc(-c2nnn(CC(=O)N3CCc4ccccc4C3)n2)c1)C1CCC1`, the “hERG current change (%, negative = inhibition) at 10uM” value is given as 2.59%.

Take `O=c1[nH]c(CSc2nc3ccccc3s2)nc2cc(Cl)ccc12`: the “hERG current change (%, negative = inhibition) at 10uM” value was determined as 12.9%.

Consider `CC(Oc1ccccc1)C(=O)OCC(=O)NC(=O)NCc1ccco1` (stereo not drawn), for which the “hERG current change (%, negative = inhibition) at 10uM” value is on record as 11.2%.

Turning to `Cc1cc(=O)[nH]c(N=N/C(=N/Nc2ccc(O)cc2)c2ccccc2)n1`, the “hERG current change (%, negative = inhibition) at 10uM” value amounted to 6.74%.

Turning to `O=C(NCCOc1ccccc1)c1ncn[nH]1`, the “hERG current change (%, negative = inhibition) at 10uM” value turned out to be 21.1%.

In the case of `COc1ccc(S(=O)(=O)N2CCC(Nc3ccccc3Cl)CC2)cc1`, the “hERG current change (%, negative = inhibition) at 10uM” value is on record as 11.6%.
